# Measured values taken from paper PMC12040169 (PLOS Biology, 2025).
# The other results are listed elsewhere or left out.
# Test system: T1, C. trachomatis L2/434/Bu expressing GFP (CTL2-GFP)
# T1 construct: L2/434/Bu GFP intracellular growth in HeLa cells
# Set-up: species or system HeLa; C. trachomatis total inclusion area by high-content imaging, normalised to DMSO
# Details: total inclusion area; 28.5 h, 10 µM; inhibitor
# Method in brief: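 Bulk GFP and resorufin signals were read first. Wells were then fixed, stained with Hoechst and imaged to detect GFP inclusions and host nuclei. MICs followed the previously described calculation.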
row,Compound,% of control remaining
1,CC(C)(C)C(=O)NC(c1nccs1)C1CCN(C(=O)C2CC2)CC1 (stereo not drawn) [CBK284678],82.7133
2,CSc1cccc(CN(C)C(=O)c2cc(C#N)c(=O)[nH]c2C)c1 [CBK306839],78.5135
3,COc1ccc([C@@]23CC[C@@H](NC(=O)Nc4cc(C)ccc4F)C[C@@H]2N(C)CC3)cc1OC [CBK036509T],76.6958
4,Cc1ccc(-c2cc(C(=O)N3CCOCC3)c3cc(Br)ccc3n2)cc1 [CBK066901],73.8909
5,COc1ccc(N2C(=O)CSC23C(=O)N(Cc2ccc(Cl)cc2)c2ccccc23)cc1 (stereo not drawn) [CBK092396],78.7901
6,Cc1nc(-c2ccco2)nc2sc(C(=O)N(C)CC3COc4ccccc4O3)c(C)c12 (stereo not drawn) [CBK295347],122.655
7,O=C(C1COc2ccccc2O1)N(Cc1cccnc1)c1nc2c(F)cccc2s1 (stereo not drawn) [CBK294421],100.947
8,Cc1cnn(CC(=O)NC(C)c2cc3cc(Cl)ccc3o2)c1 (stereo not drawn) [CBK281447],108.876
9,CC(NC(=O)CCc1cscn1)c1nc(-c2ccncc2)cs1 (stereo not drawn) [CBK305260],70.4573
10,O=C1NC2(CCN(C(=O)CCc3ccc(-c4ccccc4)o3)CC2)Nc2ccccc21 [CBK286316],68.5235
11,CC(CN1CCOCC1)C(=O)N1CC(C(=O)N2CCN(c3ccccc3)CC2)C1 (stereo not drawn) [CBK286047],106.96
12,CC(C)C(Nc1nc2ncn(Cc3ccccc3)c2c(=O)[nH]1)C(=O)O (stereo not drawn) [CBK261685],97.4518
13,COc1cncc(-c2cncc(N[C@H](C)c3ccccc3)n2)c1 [CBK065537],96.9966
14,CCN1CC2(CCN(Cc3nc4ccccc4s3)CC2)c2ccccc21 [CBK136993],71.5392
15,Cc1cc(COC(=O)N2CCCC(F)(F)C2)cc(C)n1 [CBK200151],115.868
16,CCN(CC)CC(=O)Nc1ccc(Br)cc1C(=O)c1ccccc1 [CBK262983],96.179
17,c1ccc(CNCc2nc(-c3ccccc3)no2)cc1 [CBK024404],100.405
18,COC(=O)c1ccc(COc2nc3ccccc3nc2/C=C/c2cccc([N+](=O)[O-])c2)cc1 [CBK268776],101.595
19,CCC(O)c1cc2n(n1)CCN(C(=O)c1cn(-c3ccccc3)nn1)C2 (stereo not drawn) [CBK306708],71.644
20,O=C(CN1CCOCC1)N1CCc2ccccc21 [CBK200271],75.2684
21,Cc1cccc(C(=O)N2CCN(Cc3cc(=O)n4ccsc4n3)CC2)c1 [CBK305037],74.0389
22,Nc1ncc(-c2ccncc2)nc1NCc1cccnc1 [CBK063879],129.478
23,COc1cc(-c2cncc(NCCc3ccncc3)n2)cc(OC)c1OC [CBK065405],127.188
24,COc1ccc(NC(=O)c2c(NC(=O)CN3CCCC(C)C3)sc3c2CCC3)cc1 (stereo not drawn) [CBK265061],106.07
25,O=C(O)c1ccc2c(c1)C(=O)N(c1ccc(/C=C/C(=O)c3ccccc3)cc1)C2=O [CBK261181],102.006
26,Cc1ccc2cccc(OS(=O)(=O)c3ccc(Cl)c(C)c3Cl)c2n1 [CBK263984],74.4292

row,Compound,% of control remaining
1,OCc1ccccc1-c1cncc(NCCc2c[nH]c3ccccc23)n1 [CBK037852],88.9113
2,O=C(Cn1c(=O)cc(O)c2ccccc21)N1CCN(c2ccccn2)CC1 [CBK291117],106.518
3,CCOC(=O)CCNC(=O)c1cc2cccc(OC)c2o1 [CBK149816],104.758
4,COc1ccc(Nc2cc(-c3ccc(SC)cc3)ncn2)c(C)c1 [CBK091042],107.323
5,COc1ccc(OC(C)C(=O)Nc2ccc(S(N)(=O)=O)cc2)cc1 (stereo not drawn) [CBK263646],106.695
6,O=C(O)CC(NC(=O)c1ccccc1)c1ccco1 (stereo not drawn) [CBK268843],106.894
7,CCc1nnc(CN2CCCC(c3cc(C(N)=O)[nH]n3)C2)o1 (stereo not drawn) [CBK305213],28.7406
8,C(=C\c1cccc(Nc2ccc(Oc3ccccc3)cc2)n1)/c1ccccc1 [CBK037614],96.3627
9,FC(F)(F)Oc1ccc(-c2cncc(N3CCN(c4ccncc4)CC3)n2)cc1 [CBK059230C],70.3241
10,CCCn1ncnc1C(C)NC(=O)Nc1ccnn1CC(C)C (stereo not drawn) [CBK307545],84.7895
11,Cc1nc2c(c(=O)[nH]1)CN(Cc1cc(F)ccc1F)CC2 [CBK283953],94.3362
12,Nc1ncnc(NCCc2ccccc2)n1 [CBK262701],83.1162
13,NC1CC(c2cc(NCCCc3nnc4ccccn34)ncn2)C1 (stereo not drawn) [CBK307120],56.298
14,CC(C)(N)CN(Cc1ccc(Cl)cc1)C(=O)Nc1ccccc1-c1ccccc1 [CBK004924],91.4096
15,O=S(=O)(c1ccc(Cl)c(Cl)c1)c1ccc2nccc(N3CCNCC3)c2c1 [CBK036497C],77.3232
16,CCOC(=O)c1c(C)oc2ccc(O)c(CN3CCCCC3)c12 [CBK263838C],101.965
17,CN1CCC(N2CC[C@H](c3nnc(-c4cncn4C)o3)C2)CC1 [CBK289403],98.7112
18,CC1CCN(Cc2c(O)ccc3occ(C(=O)c4ccccc4)c23)CC1 [CBK111319],94.426
19,CN1CCN(Cc2c(C3CCCC3)[nH]c3ncccc23)CC1 [CBK285336],74.7961
20,CN1CCN(C(=O)CCCN2C(=O)c3cccc4cccc(c34)C2=O)CC1 [CBK262383],114.576
21,CC1(C)CC(=O)C(C(=S)Nc2ccccc2)=C(O)C1 [CBK288395],51.9113
22,O=C(O)Cc1ccc(NC(=S)Nc2ccc([N+](=O)[O-])cc2)cc1 [CBK266959],114.193
23,CN(Cc1ccccc1)C1CCN(Cc2ccccn2)CC1 [CBK264622G],111.344
24,CCOC(=O)CCNC(=O)C1(c2ccccc2)CCCC1 [CBK149543],100.721
25,COc1ccc2c(c1)c(C(=O)NCCn1nc(C)cc1C)c(C)n2C [CBK304615],41.4661
